The values below come from paper PMC5578090, “Biological Evaluation of Uridine Derivatives of 2-Deoxy Sugars as Potential Antiviral Compounds against Influenza A Virus” (International Journal of Molecular Sciences, 2017).

The conditions of the data set: RP TLC, experimental.

Regarding `CC(=O)OC[C@H]1OC(OC[C@H]2O[C@@H](n3ccc(=O)[nH]c3=O)[C@@H]3OC(C)(C)O[C@@H]32)C[C@@H](OC(C)=O)[C@@H]1OC(C)=O` (some centres unmarked) [Compound 6], the “RMw (chromatographic lipophilicity index)” value came to 2.32.

As to `CC1(C)O[C@@H]2[C@H](O1)[C@@H](CO[C@@H]1C[C@@H](OCc3ccccc3)[C@H](OCc3ccccc3)[C@@H](COCc3ccccc3)O1)O[C@H]2n1ccc(=O)n(C(=O)c2ccccc2)c1=O` [Compound 4], the “RMw (chromatographic lipophilicity index)” value is 7.58.

In the case of `CC1(C)O[C@@H]2[C@H](O1)[C@@H](CO[C@@H]1C[C@@H](OCc3ccccc3)[C@H](OCc3ccccc3)[C@@H](CO[Si](C)(C)C(C)(C)C)O1)O[C@H]2n1ccc(=O)[nH]c1=O` [Compound 5], the “RMw (chromatographic lipophilicity index)” value is listed as 8.06.

As to `CC1(C)O[C@@H]2[C@H](O1)[C@@H](CO[C@@H]1C[C@@H](OCc3ccccc3)[C@H](OCc3ccccc3)[C@@H](COCc3ccccc3)O1)O[C@H]2n1ccc(=O)[nH]c1=O` [Compound 3], the “RMw (chromatographic lipophilicity index)” value amounted to 6.40.

`CC(=O)O[C@H]1[C@H](C)O[C@H](OC[C@H]2O[C@@H](n3ccc(=O)n(C(=O)c4ccccc4)c3=O)[C@@H]3OC(C)(C)O[C@@H]32)C[C@@H]1O[Si](C)(C)C(C)(C)C` [Compound 2]: the “RMw (chromatographic lipophilicity index)” value came to 6.74.

On to `CC1(C)O[C@@H]2[C@H](O1)[C@@H](CO[C@@H]1C[C@@H](O)[C@H](O)[C@@H](CO)O1)O[C@H]2n1ccc(=O)[nH]c1=O` [Compound 7], for which the “RMw (chromatographic lipophilicity index)” value was determined as 0.19.

With `CC1(C)O[C@@H]2[C@H](O1)[C@@H](CO[C@@H]1C[C@@H](O)[C@H](O)[C@@H](CO)O1)O[C@H]2n1ccc(=O)n(Cc2ccccc2)c1=O` [Compound 8], the “RMw (chromatographic lipophilicity index)” value is recorded as 2.09.

Consider `CC(=O)O[C@H]1[C@H](C)O[C@H](OC[C@H]2O[C@@H](n3ccc(=O)[nH]c3=O)[C@@H]3OC(C)(C)O[C@@H]32)C[C@@H]1O[Si](C)(C)C(C)(C)C` [Compound 1], for which the “RMw (chromatographic lipophilicity index)” value is on record as 5.83.
